In all, about 33,000 sequences were measured (“E-score (dimensionless, -0.5 to 0.5)”: median about -0.058, highest 2% from about 0.35 on). This is one part of the list.
These sequences were tested on MvaT (assay: PBM 8-mer E-score (mean of HK and ME arrays) (E-score (dimensionless, -0.5 to 0.5)); higher = stronger relative binding preference; most listed sequences are background and not binding sites).
Procedure, shortened: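 Reported values are rank-based E-scores, taken as the mean of two universal arrays and parsed with a custom script. Each 8-mer score falls between -0.5 and 0.5. The arrays, ME and HK, were double-stranded 60-mers with a constant 25-mer primer region and a variable 35-mer region covering all 8-mers. They were probed, by an earlier protocol, with full-length P. aeruginosa MvaT carrying an N-terminal glutathione S-transferase fusion.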

Sequence | PBM 8-mer E-score
ATATAGCC | 0.0877
GAAAGAAC | 0.11
ACGGGGAC | -0.216
CGTTGACA | -0.194
AGCTTTAC | -0.00475
AGGAAGAA | -0.00696
AGATAACC | -0.021
ACTACCAA | 0.0803
ACCGCGGA | -0.226
GCCCAGCA | -0.178
AGTGAGAG | 0.0213
CAGAGACG | -0.193
ATGATAAT | 0.292
ATGCTCGA | -0.0665
CCGTCCCA | -0.189
CACAAGTC | 0.044
GGCCTGGA | -0.19
AAACATGA | 0.249
TCTCTTAA | 0.169
ACCGGTAG | -0.0729
ACGGATAC | -0.0502
CTTTGACA | -0.0224

Sequence | PBM 8-mer E-score
CACCAGCC | -0.0802
CTTCGCAA | -0.0532
GGGCCATA | -0.0688
TATAGCGA | 0.113
GCTCATAA | 0.0536
ATCAGGTC | -0.0455
AATAATCG | 0.309
AGTGTCCC | -0.219
GATGGGTA | 0.0251
AAAGTGGC | -0.028
GCTTCGAA | 0.0154
CTGCGCGA | -0.1
ATATGTGG | 0.181
AGACAACT | 0.0929
AATTCGGC | 0.13
GCCTTTAA | 0.0394
GAGAGAGA | -0.0661
CGTCATAC | -0.0691
ACTTTGCT | 0.134
CGGGTTAC | -0.0734
TAAGGTAA | 0.122
GCTGCAGC | -0.279

Sequence | PBM 8-mer E-score
GCGGATTA | 0.119
CGCTAGAG | -0.0936
AACGGATC | -0.117
CGATTAGC | -0.186
ATCATTCA | 0.138
GAGGTGTA | 0.00609
CAAGGGTG | -0.255
GGAACGAA | -0.101
ACCCCTTA | -0.0583
GTGTAAGA | 0.137
CTAGAGAG | -0.241
CTACCGTC | -0.264
CTTCAGGC | -0.271
AGATTGCA | 0.0485
CGTAGATA | 0.0948
CCGGGCAA | -0.208
ATATAATG | 0.402
ACTGTGGG | -0.129
CACCAGTC | -0.0178
ATCGTAGG | -0.11
GCGACACA | -0.00753
GTGTCGCA | -0.184

Sequence | PBM 8-mer E-score
GGGAGACA | -0.185
AATGTGCC | 0.0164
GCGTTACC | -0.109
CCGCGAGC | -0.177
CGAGTGAC | -0.244
CCCGCGTC | -0.126
GAGTAGCC | -0.284
TCCTTTAA | -0.000171
CGCGGATC | -0.168
CGCACAGC | -0.0754
AACGGTAT | -0.0447
CCTGCATA | 0.0536
CCCAGTAC | -0.175
AGGACTTA | 0.0588
AATGGGTA | 0.138
GCCCCTCC | -0.347
ATGGGGAA | -0.0795
GTGATCAC | 0.00942
AATCGACC | -0.0472
AGTTCCCC | -0.0538
AAGTAAGG | 0.216
AAAGCATC | -0.137

Sequence | PBM 8-mer E-score
TACTCGAA | 0.189
GGTAAACA | 0.12
AAATCTGG | 0.00259
AGCTGAAC | -0.2
AAGGGGGC | -0.264
AGTGAAGC | -0.294
AAAGCGGA | -0.0665
CATCCGAA | -0.085
CGGCCGTC | -0.233
CACTGCCC | -0.21
AGGCGGCG | -0.263
CTTGGAGC | -0.218
GCACCTCC | -0.323
CATGGAGC | -0.21
GCCGTATA | 0.01
ACTATCCC | 0.037
CGGGTAAG | -0.0672
CGTTAAAA | 0.295
AAGAGCGC | -0.074
ACCCCCGG | -0.291
GGAACACA | -0.0728

— the supplement of paper PMC4466236
